Assay results taken from ChEMBL document CHEMBL4888484, “Replenishing the malaria drug discovery pipeline: Screening and hit evaluation of the MMV Hit Generation Library 1 (HGL1) against asexual blood stage Plasmodium falciparum ,using a nano luciferase reporter read-out” (2022).
Screen size: about 4,800 compounds; about 410 (8.5%) showed an effect of 50% or more. This is one part of the list.

The molecules below were run on Plasmodium falciparum (assay: Confirmatory screen in NF54 pLDH assay, in single point, at 2uM, 72h). Conditions: timepoint 72 hour.
Assay type: functional, Erythrocyte

In order of falling “% Inhibition” value:
1. COc1nc(-c2cccc(C(=O)NCC3CCOCC3)c2)ncc1F  80%
2. COc1cccc(NC(=O)Cn2c(C)ccc(NS(=O)(=O)c3ccc(C)cc3)c2=O)c1  59%
3. COCCCn1c(NS(=O)(=O)c2ccccc2)c(S(=O)(=O)c2ccc(C)cc2)c2nc3ccccc3nc21  49%
4. O=C(CN1C=CCC=C1c1nc(-c2ccc(Br)cc2)cs1)c1ccccc1  46%
5. Cc1nc2ccccc2n1CCC(=O)N1CCN(Cc2ccc3c(c2)OCO3)CC1  14%
6. CCC(C)(C)C(=O)N1CCC[C@@H]1CCc1ncc(C)n1C(C)C  14%
7. CN1CCC2C(CCN2C(=O)Nc2ccc(Cl)c(C(F)(F)F)c2)C1 (configuration not stated)  13%
8. CCCOc1cc2nc(C(F)(F)F)cc(-c3cccs3)c2cc1OCCC  13%
9. Nc1c(-c2ccc(F)cc2)cnc2cc(-c3ccc(Cl)c(Cl)c3)nn12  12%
10. CC(C)(C)c1nc(Cn2c3c(sc2=O)CCCC3)no1  12%
11. Clc1ccc(Cl)c(-c2ccc(CNCCOc3ccccn3)o2)c1  11%
12. CCN(C(C)=O)c1nc(CN2CCc3cc(C)cc(C)c3C2)cs1  11%
13. O=C(CN1CCC[C@H](O)C1)N(C1CCCCC1)C1CCCCC1  10%
14. CC(C)(C)OC(=O)NCc1ccccc1O  10%
15. Cc1ccc(Cl)c2ccc(NC(=O)CCNC(N)=O)nc12  10%
16. C=CCOc1ccc(CN(C)S(=O)(=O)CC#N)cc1  9%
17. Cc1ccc(CC(=O)N2C[C@H](c3ccccc3)C(c3ccc(Cl)cc3)=N2)cc1  9%
18. CC(=O)N1CCC2(CC1)NN=C1C=CC(c3nc(C(C)(C)C)no3)=CN12  9%
19. COCC(=O)N[C@H]1CO[C@H]2[C@@H]1OC[C@@H]2Nc1nccc(-c2cccc(C#N)c2)n1  9%
20. Cc1nsc2ncn(C[C@H](O)COCc3ccco3)c(=O)c12  8%
21. CCn1c(=O)c(N2CCN(C(=O)Nc3ccc(F)cc3F)CC2)nc2ccccc21  8%
22. C=CCN(CC=C)C(=O)COc1cc(C)c(C)nn1  8%
23. Cc1ccc(C)c(C(=O)N2C[C@@H]3CN(C(=O)C4CCC4)C[C@]3(C(=O)O)C2)c1  8%
24. CCn1cc(S(=O)(=O)N(C)Cc2nn(CC)cc2Cl)cn1  8%
25. CCc1n[nH]c(=O)c(C(=O)Nc2cnc3[nH]nc(C)c3c2)c1CC  7%
26. Cc1nn(-c2ncc(C(F)(F)F)cc2Cl)c(=O)n1-c1cccc(Cl)c1  7%
27. COc1cc(C(=O)Nc2scnc2C)cc(OC)c1OC  7%
28. CC(C)=C(F)C(=O)N1CC[C@H](CO)C[C@@H]1C  6%
29. CC1Cc2cc(-c3ccc(CNC(=O)C(C)(O)C4CC4)cc3)ccc2O1 (configuration not stated)  6%
30. N=C1CCCN1c1c(Cl)cccc1Cl  5%
31. Cc1ccsc1CN(C(=O)c1cccc[n+]1[O-])C(C)C  5%
32. CCN(CC(=O)Nc1ccc2c(c1)OCCO2)C(=O)CCc1c(C)noc1Cl  5%
33. CNc1nc(C)cc(C(=O)Nc2ccc(Cl)cc2NC(C)=O)n1  5%
34. Cc1cccn2cc(CN(C)[C@H](c3ccccn3)C3CC3)nc12  4%
35. C[C@@H](C1CC1)N(C1CC1)S(=O)(=O)c1ccc(F)cc1F  4%
36. CC[C@@H](CO)NCc1ccc(OC)cc1OC  4%
37. CN(CC(F)(F)F)S(=O)(=O)c1ccc(C(=O)O)cc1  4%
38. c1ccc(NC(Nc2nnn[nH]2)=C(c2ccccc2)c2ccccc2)cc1  4%
39. O=C(c1ccc(COc2ccc(Cl)cc2Cl)cc1)n1cc(Br)cn1  3%
40. COc1ccc(-n2nnnc2C2(N3CCOCC3)CCCC2)cc1OC  3%
41. Cc1cc(C(=O)N[C@H]2CCS(=O)(=O)C2)nc(N(C)C)n1  2%
42. Cc1c(Cl)cccc1C(=O)N1CCC[C@H](Cn2cncn2)C1  1%
43. O=S(=O)(c1ccccc1Br)N1CC[C@H]1c1ccccc1  1%
44. COc1cc(-c2nc3ccccc3s2)ccc1OCc1cccc2ccccc12  0%
45. CN1CCN(c2nc(O)c3c(n2)NC(=O)C[C@H]3c2c(F)cccc2F)CC1  0%
46. Fc1ccc(Nc2nc(OC(C(F)(F)F)C(F)(F)F)nc(N3CCCCCC3)n2)cc1  0%
47. COc1cc(F)c([C@H](C)NC(=O)N(C)Cc2ccco2)cc1OC  -1%
48. c1ccc2c(c1)ccc1oc(-c3ccn[nH]3)cc12  -3%
49. COc1ccc(OC)c(CNC(=O)c2ccc(Nc3ncc(-c4cccc(F)c4)cn3)cc2)c1  -4%
50. Cc1cccc(N2CCN(C(=O)CN3CCN(Cc4ccc(Cl)cc4)C3=O)C[C@@H]2C)c1  -6%
51. CCN1C(=O)C[C@H](C(=O)Nc2cnc3ccccc3c2)[C@H]1c1nccn1CC  -7%
52. COCCOc1ccc2c(n1)CCN(C(=O)c1ccc(OC)cc1)C2  -8%
53. CC[C@H](Nc1ccc(Cl)c(NC(C)=O)c1)C(=O)OC  -8%
54. CC1(C)Cc2cc(S(=O)(=O)N[C@H]3CCC(=O)NC3(C)C)ccc2O1  -8%
55. Cc1ccn(-c2ccc(C(=O)NC3CCCC3)cn2)n1  -9%
56. O=C(NS(=O)(=O)C1CCOCC1)c1csc(-c2ccco2)n1  -10%
57. Cc1cc(C(=O)NCCCN2CCCC2=O)nn1C(F)F  -10%
58. [O-]/[N+](=C\c1ccncc1)Cc1ccccc1  -11%
59. CC(C)(C)OC(=O)N1CCC2(CC1)NN=C1C=C(N3CCN(c4ccccc4F)CC3)N=CN12  -14%
60. N#Cc1ccc(CNc2ccccc2OCC(F)F)o1  -18%
61. CC(C)(C)n1ncc2c1NC(=O)C[C@@H]2c1c(F)cccc1Cl  -19%
62. Nc1nonc1C(=O)N1CCN(C(=O)Nc2cccc(F)c2)CC1  -21%
63. CC[C@H]1Cn2c(C(=O)NCc3ccc(C)o3)cc3cccc(c32)O1  -21%
64. CCn1nccc1CNc1cc(Cl)cc2c1OCC2  -22%
65. N#Cc1c(CN(CCn2cccn2)Cc2cn3ccccc3c2C#N)cn2ccccc12  -22%
66. CCC(=O)N1CCN(c2nc3c(s2)C[C@@H](C(=O)Nc2cccc(Cl)c2)CC3)CC1  -23%
67. O=C(CC1CCOCC1)NCc1ccccn1  -24%
